# From PubChem BioAssay AID1347165 (National Center for Advancing Translational Sciences (NCATS), 2019)
# About 5,700 (2.6%) of roughly 220,000 compounds were called active. The inconclusive results got no clear call from the source; some entries with a clear call stand among them for comparison. Calls follow the shape of the dose curve; as a rule, active = well fitted inhibition curve with a large enough effect; inconclusive = small, poorly fitted or top-dose-only effect; inactive = no such curve, though single readings can be large or run the other way. Potencies beside an inconclusive call are fits to weak or partial responses and may not hold up.
# Target: Lysine-specific demethylase 5B (Homo sapiens) (UniProt Q9UGL1)
# Chain of UniProt Q9UGL1 (Q9UGL1 whole entry, looked up): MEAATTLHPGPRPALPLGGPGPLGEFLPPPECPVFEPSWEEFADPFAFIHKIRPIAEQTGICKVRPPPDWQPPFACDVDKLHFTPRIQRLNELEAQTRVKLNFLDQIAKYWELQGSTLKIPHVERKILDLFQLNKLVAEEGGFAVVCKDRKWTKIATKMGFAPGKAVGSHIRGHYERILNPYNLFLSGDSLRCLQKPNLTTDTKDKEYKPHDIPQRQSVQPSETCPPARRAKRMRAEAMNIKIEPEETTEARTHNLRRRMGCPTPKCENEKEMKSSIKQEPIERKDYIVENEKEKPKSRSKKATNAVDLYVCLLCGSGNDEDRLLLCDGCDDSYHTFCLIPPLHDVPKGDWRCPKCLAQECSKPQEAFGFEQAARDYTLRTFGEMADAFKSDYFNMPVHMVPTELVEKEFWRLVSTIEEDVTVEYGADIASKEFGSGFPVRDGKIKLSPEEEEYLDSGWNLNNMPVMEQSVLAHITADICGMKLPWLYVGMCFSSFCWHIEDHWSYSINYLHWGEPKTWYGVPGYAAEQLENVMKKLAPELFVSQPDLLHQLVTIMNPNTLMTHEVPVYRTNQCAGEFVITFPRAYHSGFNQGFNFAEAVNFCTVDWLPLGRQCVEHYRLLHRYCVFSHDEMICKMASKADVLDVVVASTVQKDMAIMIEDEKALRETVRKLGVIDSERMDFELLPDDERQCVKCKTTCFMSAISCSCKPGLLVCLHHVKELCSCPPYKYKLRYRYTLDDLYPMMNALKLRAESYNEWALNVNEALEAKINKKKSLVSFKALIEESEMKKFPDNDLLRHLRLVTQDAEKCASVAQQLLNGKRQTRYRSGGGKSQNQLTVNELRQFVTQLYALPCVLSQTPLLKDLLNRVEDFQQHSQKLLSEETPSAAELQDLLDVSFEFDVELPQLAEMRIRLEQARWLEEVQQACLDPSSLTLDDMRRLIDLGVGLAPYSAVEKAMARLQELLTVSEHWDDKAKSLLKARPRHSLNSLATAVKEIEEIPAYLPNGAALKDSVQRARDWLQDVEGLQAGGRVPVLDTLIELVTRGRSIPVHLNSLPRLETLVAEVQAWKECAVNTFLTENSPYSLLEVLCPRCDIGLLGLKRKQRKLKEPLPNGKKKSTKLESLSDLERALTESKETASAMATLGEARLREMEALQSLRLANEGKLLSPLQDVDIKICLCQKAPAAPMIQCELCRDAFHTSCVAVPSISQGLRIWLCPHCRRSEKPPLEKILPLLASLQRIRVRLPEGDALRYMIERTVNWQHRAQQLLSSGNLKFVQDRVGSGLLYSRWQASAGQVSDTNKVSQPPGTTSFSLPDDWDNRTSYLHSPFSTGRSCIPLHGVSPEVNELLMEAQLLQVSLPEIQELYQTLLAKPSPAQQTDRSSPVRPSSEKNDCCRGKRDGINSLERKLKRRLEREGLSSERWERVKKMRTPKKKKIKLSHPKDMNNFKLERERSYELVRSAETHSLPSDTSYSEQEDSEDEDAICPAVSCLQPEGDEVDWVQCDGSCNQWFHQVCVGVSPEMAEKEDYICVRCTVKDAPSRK
# Test: Primary screen for KDM5B Histone Demethylases FDH-coupled qHTS; also: nearly all actives have a fitted effect of over 70% in size
# Details: FDH-coupled NADH fluorescence (FDH is formaldehyde dehydrogenase); series mostly up to 57.7 µM
# Method in brief: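 KDM5BΔAP (200 nM final) in 50 mM HEPES pH 7.5, 0.01% Tween-20 was preincubated 10 min at RT with compound over a concentration range. Substrate mix (H3K4me3 12.5 µM, α-KG 25 µM, Fe²⁺, ascorbate, NAD⁺, FDH) was added, and NADH fluorescence change over 30 min gave dose-response curves.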
# Potency is read from the fitted curve at half-maximal effect; tags tell the direction and shape of the fitted curve.
row,SMILES,Potency
1,Cn1cc(C(C(=O)O)N2CCC(Cc3ccccc3)CC2)c2ccc(C(=O)O)cc21 (stereo not drawn),"inconclusive: 25.1 µM [inhibitor, single point]"
2,COCCNC(=O)CC1=CSC2=NC(C)=C(C(=O)Nc3ccccc3)C(c3cccc(C)c3)N12 (stereo not drawn),"inconclusive: 35.5 µM [inhibitor, partial curve, poor fit]"
3,Cc1csc(NC(=O)CSc2nc3[nH]c(=O)cc(O)c3s2)n1,"inconclusive: 25.1 µM [inhibitor, single point]"
4,COc1ccc(S(=O)(=O)N(CC(=O)NC2CCCCCC2)c2ccc(C)cc2)cc1OC,inactive
5,CN(C)c1ccc(NC(=O)CCSc2nc(-c3ccco3)cc(C(F)(F)F)n2)cc1,"inconclusive: 25.1 µM [inhibitor, partial curve, poor fit]"
6,Cc1cnc(CC2CCNC2)n1CC1CC1 (stereo not drawn),inactive
7,CN1c2cc(C(=O)Nc3ccc(Cl)c(Cl)c3)ccc2C(=O)N2CCCCC21 (stereo not drawn),"inconclusive: 35.5 µM [inhibitor, partial curve, poor fit]"
8,Cc1ccccc1C(=O)NCCn1cccc1-c1nc(-c2ccc3c(c2)OCO3)no1,inactive
9,CC(C)NC(=O)N[C@H]1CCN2C(=O)c3cc(-c4cccc(C(F)(F)F)c4)ccc3NC(=O)[C@H]12,"inconclusive: 31.6 µM [inhibitor, single point]"
10,Cc1nc(N2CCN(Cc3ccc4c(c3)OCO4)CC2)c2oc3ccccc3c2n1,"inconclusive: 31.6 µM [inhibitor, partial curve, poor fit]"
11,COc1cccc(CN2C[C@@H]3C(=O)N(CCN4CCc5ccccc5C4)C(=O)[C@@H]3C2)c1,"inconclusive: 31.6 µM [inhibitor, partial curve, poor fit]"
12,Cc1cccc(C(=O)Nc2ccc(CC(=O)N(C)C)cc2)c1,inactive
13,O=C(Cn1c(=O)n(Cc2nc(-c3ccccc3)no2)c(=O)c2cc3c(cc21)OCO3)Nc1ccc(Cl)cc1,"inconclusive: 35.5 µM [inhibitor, partial curve, poor fit]"
14,COc1ccccc1-c1ccc(=O)n(Cc2ccccc2F)n1,inactive
15,CC(C)CNc1cccc2c1S(=O)(=O)N(Cc1cn(Cc3cccc(C(F)(F)F)c3)nn1)Cc1ccccc1O2,"inconclusive: 10 µM [inhibitor, partial curve, poor fit]"
16,Cc1ccc(C)c(N2CCN(c3ccc(NC(=O)c4cccs4)cc3C(=O)O)CC2)c1,"inconclusive: 44.7 µM [inhibitor, single point]"
17,CCOC(=O)c1c(NC(=O)C(=O)NCc2ccco2)sc2c1CC(C)(C)OC2,"inconclusive: 39.8 µM [inhibitor, single point]"
18,COc1ccc(Nc2cc(Sc3ccc(OC)cc3)ncn2)cc1,"inconclusive: 25.1 µM [inhibitor, partial curve, poor fit]"
19,COc1ccc2c(=O)c(Oc3ccccc3Br)c(C)oc2c1,inactive
20,Oc1ccc(CN2CC(CNc3ccccc3)C3(C2)CN(c2ccccc2)C3)cc1 (stereo not drawn),"inconclusive: 35.5 µM [inhibitor, single point]"
21,CC(C)CNC(=O)CCSc1nc(-c2ccc3c(c2)OCO3)cc(C(F)(F)F)n1,"inconclusive: 2.82 µM [inhibitor, full curve, poor fit]"

row,SMILES,Potency
1,CCOc1ccc2c(c1)cc(C(=O)NCc1ccco1)n2C,"inconclusive: 14.1 µM [inhibitor, partial curve, poor fit]"
2,COC(=O)c1sc(-c2ccc(C(C)(C)C)cc2)cc1NC(=O)CSCC(=O)O,"inconclusive: 31.6 µM [inhibitor, single point]"
3,COc1ccc(CN2CC3(C2)C(=O)N(Cc2cccc(Cl)c2)C(=O)[C@@H]2C[C@@H](O)CN23)c2ccccc12,"inconclusive: 20 µM [inhibitor, single point]"
4,CCc1ccc(CN2CCc3nc(N4CCN(C)CC4)[nH]c(=O)c3CC2)cc1,inactive
5,Cn1nc(C(=O)Oc2cccc(Cl)c2Cl)c2ccccc2c1=O,"inconclusive: 39.8 µM [inhibitor, single point]"
6,N#Cc1cccc(CN2CCc3c(n(Cc4cccnc4)n(CCc4ccccc4)c3=O)C2)c1,"inconclusive: 31.6 µM [inhibitor, partial curve, poor fit]"
7,O=C(c1ccc(F)cc1)N1CCC(c2nn(-c3ccc(Cl)cc3)c(=O)[nH]2)CC1,inactive
8,COCCN1CCC2(C1)CN(C)c1ccc(C(=O)Nc3ccc(OC)cc3)cc12 (stereo not drawn),"inconclusive: 25.1 µM [inhibitor, partial curve]"
9,Cc1ccc(C)c(OCC(=O)c2ccc3c(c2)N(CCCC(=O)NC2CCCCC2)C(=O)CO3)c1,inactive
10,CC(C)Cn1nc(C(=O)NCc2cccc(CN(C)C)c2)c2ccccc2c1=O,inactive
11,COC(=O)CSc1nc2c(cnn2-c2ccc(F)cc2)c(=O)[nH]1,inactive
12,CC(=O)N1c2ccc(S(=O)(=O)N3CCN(c4ccc(C)cc4C)CC3)cc2CC1C (stereo not drawn),"inconclusive: 6.31 µM [inhibitor, partial curve, poor fit]"
13,COc1ccccc1N(CC(=O)NCCSCc1ccccc1Cl)S(C)(=O)=O,inactive
14,CC1(C)CC2CC(C)(CN2C(=O)CC(c2ccccc2Cl)c2c[nH]c3ccccc23)C1 (stereo not drawn),"inconclusive: 35.5 µM [inhibitor, partial curve, poor fit]"
15,CCCN(CCO)C(=O)CC1C(=O)NCCN1C1Cc2ccccc2C1 (stereo not drawn),"inconclusive: 12.6 µM [inhibitor, partial curve, poor fit]"
16,CCC(=O)N1N=C(c2ccc(OC)cc2)CC1c1cn(-c2ccccc2)nc1-c1cccs1 (stereo not drawn),"inconclusive: 0.708 µM [inhibitor, partial curve, poor fit]"
17,CCOc1ccc(/C=N/NC(=O)c2cc3ccccc3cc2OC)cc1,"inconclusive: 28.2 µM [inhibitor, partial curve, poor fit]"
18,CC1CCCC(C)N1C(=O)COC(=O)c1cccc(S(=O)(=O)N(C)c2ccccc2)c1 (stereo not drawn),inactive
19,COc1ccc(Cl)cc1NC(=O)Cn1c(N2CCCCC2)nc(C)c(C)c1=O,active: 20 µM
20,O=C(CCc1ncc(-c2ccccc2F)o1)Nc1ccc(Cl)cc1F,inactive
21,Cc1cccc(CSc2cn(CC(=O)N3CCCCC3)c3ccccc23)c1,"inconclusive: 1.12 µM [inhibitor, full curve, poor fit]"

row,SMILES,Potency
1,COc1ccccc1CN1CCNc2cc(-c3ccnc(C)c3)ncc2C1,inactive
2,O=C(Cn1cc(SCc2cccc(F)c2)c2ccccc21)N1CCOCC1,"inconclusive: 1.58 µM [inhibitor, partial curve, poor fit]"
3,O=C(/C=C/c1ccc(-c2ccccc2Cl)o1)c1ccc(Cl)cc1,"inconclusive: 10 µM [inhibitor, partial curve, poor fit]"
4,Cc1ccc(OCC(=O)Nc2ccc3nc(SCC(=O)N4CCCC4)sc3c2)cc1,"inconclusive: 1.78 µM [inhibitor, partial curve, poor fit]"
5,Oc1ccccc1N1CCN(c2ncnc3scc(-c4ccccc4)c23)CC1,"inconclusive: 25.1 µM [inhibitor, single point]"
6,NCCC(=O)NC1CCCc2c1cnn2-c1ccc(F)cc1F (stereo not drawn),"inconclusive: 14.1 µM [inhibitor, partial curve]"
7,Cc1noc2c(-c3cccc(O)c3)cc(-c3ccccc3)nc12,"inconclusive: 31.6 µM [inhibitor, single point]"
8,CC1CCN(c2oc(-c3cccs3)nc2S(=O)(=O)c2ccc(Cl)cc2)CC1,"inconclusive: 22.4 µM [inhibitor, partial curve, poor fit]"
9,O=C(NC1CCN(Cc2ccccc2)CC1)c1ccccc1OCc1ccccc1Cl,"inconclusive: 28.2 µM [inhibitor, partial curve, poor fit]"
10,Cc1ccc(CNC(=O)c2ccc(-n3c(C)cc4c3CCCC4)cc2)cc1,"inconclusive: 25.1 µM [inhibitor, partial curve, poor fit]"
11,CCc1nc2nccc(-c3ccco3)n2n1,active: 28.2 µM
12,CC(C)CN(CC1CN(C(=O)Cc2cccs2)CCO1)C(=O)c1cccc2ccccc12 (stereo not drawn),"inconclusive: 20 µM [inhibitor, partial curve, poor fit]"
13,CN1CCC2(C1)CN(CC1CCOCC1)c1ccc(C(=O)NCCOc3ccccc3)cc12 (stereo not drawn),active: 22.4 µM
14,CNc1nc(Nc2ccc(C)c(Cl)c2)c2cnn(C)c2n1,"inconclusive: 25.1 µM [inhibitor, partial curve, poor fit]"
15,COc1ccc(N2CCN(c3ccc(S(=O)(=O)N(C(C)C)C(C)C)cn3)CC2)cc1,"inconclusive: 35.5 µM [inhibitor, single point]"
16,COc1ccc(CCNc2nc(-c3cc(OC)c(OC)c(OC)c3)cs2)cc1OC,"inconclusive: 31.6 µM [inhibitor, single point]"
17,Cc1ccc(C2C3=C(CCCC3=O)Nc3[nH]n(-c4ccccc4)c(=O)c32)cc1 (stereo not drawn),"inconclusive: 14.1 µM [inhibitor, partial curve, poor fit]"
18,CCOC(=O)c1cc(OC(C)C(=O)NC(C)c2ccccc2)cc(C(=O)OCC)c1 (stereo not drawn),inactive
19,Cc1ncc(CO)c(CN2CCCC23Cc2ccccc2CNC3=O)c1O (stereo not drawn),active: 79.4 µM
20,O=C1OC[C@@H]2CCN(Cc3ccncc3)Cc3ccc(F)cc3N12,"inconclusive: 39.8 µM [inhibitor, partial curve, poor fit]"
21,Cc1cccc(C(=O)Nc2nc3c(s2)CCCC3)c1,"inconclusive: 17.8 µM [inhibitor, partial curve, poor fit]"
